Whole data set: some 33,000 sequences, median “E-score (-0.5 to 0.5)” near -0.01, cut for the highest 2% near 0.26. The list shows a part of the results.
target: Ste12 (UniProt P13574); assay: PBM E-score (8-mer binding enrichment) (E-score (-0.5 to 0.5)); higher = stronger / more preferred TF binding; most listed sequences are background and not binding sites; conditions: protein concentration: 200 nM; construct: GST-DNA-binding domain
Outline: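 Universal all-10-mer Agilent arrays, double-stranded by primer extension on fresh or once-stripped slides, were probed with about 100-200 nM GST-tagged yeast transcription factors made by PURExpress. Fluorescent anti-GST detected bound protein, and masliner normalised the scans. E-scores from the Universal PBM Analysis Suite were given to each ungapped eight-base word pooled with its reverse complement.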

| Sequence | PBM E-score |
| --- | --- |
| CTTCGTCA | 0.0182 |
| CGATACAC | 0.0976 |
| ACACTGAC | -0.06 |
| ATAAATCC | 2e-05 |
| AACAAAGT | 0.187 |
| CCCGATTC | 0.0925 |
| ATTTGAAC | 0.123 |
| AATTTTCT | 0.114 |
| AACAGTCT | -0.249 |
| GATCTAAC | 0.126 |
| AGTACTCC | -0.23 |
| CGTCAGCA | -0.151 |
| ACACGGGC | -0.142 |
| AATATATG | 0.143 |
| ATCATTAA | 0.298 |
| TGAGAGCA | -0.0133 |
| ACAGCGAA | 0.0637 |
| TGCCCCCA | -0.216 |
| CCAGTTGC | -0.119 |
| AACGAACC | 0.0385 |
| TACAGTCA | 0.0395 |
| CCCCTCCG | 0.171 |
| AACCAATA | 0.195 |
| AAGTGTTG | 0.118 |
| CCCCGGTC | -0.127 |

| Sequence | PBM E-score |
| --- | --- |
| ACGAAGAC | -0.102 |
| CGCTCTGA | 0.0576 |
| GATCCATC | -0.124 |
| CATTGGGA | -0.0909 |
| AATCAATA | 0.131 |
| ACCGTTCG | -0.118 |
| CATCAGCA | 0.123 |
| CGTGGCTA | -0.199 |
| ATGTTCGC | -0.114 |
| AAAGCGGT | 0.0779 |
| AGGTCCAC | -0.235 |
| GATCTCTA | -0.105 |
| CCTTCGAC | -0.0226 |
| ACTTAACG | -0.119 |
| CACGCTGC | -0.176 |
| CAAGAGGC | -0.159 |
| CCTGATAC | 0.226 |
| GAGCGGCC | -0.157 |
| ACAAGCGA | 0.0432 |
| AAAATAGT | 0.0608 |
| ATCTCGTC | -0.0888 |
| CCACTGCG | -0.0201 |
| AGCCCAAG | -0.131 |
| CAGTGTTC | 0.00667 |
| AAATCTGT | 0.167 |

| Sequence | PBM E-score |
| --- | --- |
| AAATCTAC | 0.151 |
| GCTGCCTA | -0.0571 |
| ACGGGTGC | -0.14 |
| CGGTAGTA | -0.144 |
| CCAGTCTA | -0.246 |
| GCTTGTGA | -0.0847 |
| CAATTATA | 0.139 |
| CGCCTTTA | -0.0312 |
| ACACCTAG | -0.129 |
| CGGCACGA | -0.0366 |
| GCGTGCTA | -0.297 |
| ATAGATGG | -0.116 |
| CTGCTCTA | -0.0821 |
| CATGTTCC | -0.0468 |
| CACCTATG | -0.0896 |
| ACCTGTCA | 0.0912 |
| GGGAACGA | -0.0559 |
| AGTCTTCG | -0.111 |
| AATCGGAT | 0.13 |
| CCAGTCGA | 0.042 |
| ACGGTTGA | 0.0194 |
| AGTACCCG | 0.0288 |
| AAAATTCA | 0.212 |
| CAAAGGTC | -0.187 |
| GATCTACA | -0.101 |

| Sequence | PBM E-score |
| --- | --- |
| ACAGACCT | 0.079 |
| ATCGAGCG | 0.0436 |
| ACCCTGGA | 0.0722 |
| AGGGCAGA | -0.0685 |
| TCTACCAA | -0.128 |
| GGTTGTTA | 0.253 |
| CGAACCAG | -0.102 |
| AATGCAAT | -0.183 |
| CCCTGTCA | -0.0927 |
| GACTGGAA | -0.0552 |
| AGTAAGAT | 0.0911 |
| AACTCTCA | 0.00857 |
| CTCCTGGC | -0.0305 |
| AAATAGTG | 0.152 |
| CCCACAAA | 0.205 |
| CTTACGGA | -0.176 |
| CGGAGAAG | -0.00086 |
| GGGTTGGA | -0.00521 |
| CATCAAAC | 0.168 |
| CAGTGGGA | -0.0936 |
| AAAGTAAC | 0.181 |
| ACCTCTAG | -0.0158 |
| AGTGAATA | -0.0899 |
| GGCGCAAC | 0.0024 |
| AGTAATAC | 0.00891 |

| Sequence | PBM E-score |
| --- | --- |
| CGGCTGGA | -0.0994 |
| ACGCCCAA | 0.0871 |
| ACAAAGTA | 0.0483 |
| AGTACATC | -0.0599 |
| AACACACC | 0.143 |
| ATATTGCC | 0.0991 |
| AGGCGCCC | -0.194 |
| CGACAGTA | -0.0694 |
| ATAGACCA | -0.0601 |
| TCCCCAGA | -0.179 |
| ATCACCGA | 0.0751 |
| GCGAGTAA | 0.0934 |
| TAAGTATA | 0.0848 |
| GGCACCAC | -0.0345 |
| AATTCCCT | 0.0616 |
| CATTGCGC | -0.1 |
| CAAGCTCC | -0.106 |
| AACTGTGC | -0.158 |
| CCCACGGG | -0.119 |
| ACCAGTGC | -0.233 |
| AAGTGAGT | -0.0575 |
| CGGTAAGA | -0.177 |
| GTGCACTA | 0.0979 |
| AAGGAAGG | -0.228 |
| GCTGTCAA | -0.159 |

| Sequence | PBM E-score |
| --- | --- |
| TCAGAACA | 0.0564 |
| CACTAGTC | -0.137 |
| CCTACATA | 0.112 |
| GGGTCTGA | 0.0492 |
| AGTCGAAA | 0.00195 |
| AGGTTCTG | -0.159 |
| GTGGCATA | 0.078 |
| ACTTCTAA | 0.0133 |
| GCCCGTCC | -0.087 |
| TACTTGCA | 0.0715 |
| ACGGTACG | -0.135 |
| TGCCAGAA | 0.117 |
| GAGAAGAA | 0.0157 |
| ACTGAGAG | 0.0683 |
| AGCGATTG | -0.133 |
| ACACTGCT | -0.0892 |
| CTCTCCGA | -0.0401 |
| GTACCCGA | -0.107 |
| CTAAATCA | 0.109 |
| AGAAATAG | -0.00818 |
| GATACACA | 0.037 |
| CATTTTGG | 0.0729 |
| CACAGACG | -0.174 |
| AGGACATA | -0.0599 |
| GACATAAA | 0.251 |

| Sequence | PBM E-score |
| --- | --- |
| GTCCTGTA | -0.0649 |
| GTATCCTA | -0.188 |
| ACTGGACT | -0.0549 |
| GGAACTCC | 0.0773 |
| TACATGAA | 0.201 |
| CACCTCGG | 0.0725 |
| ATATGCCG | 0.0198 |
| AGTAGCTC | -0.169 |
| GACAGTCA | -0.192 |
| TAGTTTCA | 0.36 |
| GTAAATAA | 0.168 |
| ATGTGAGC | -0.12 |
| TCAGGTCA | -0.015 |
| AAGATAGC | -0.0372 |
| AAGCTTTG | 0.0106 |
| ACTCGTGA | 0.0781 |
| CGTCCCGC | 0.0259 |
| AACGTTCG | 0.104 |
| CACCTGCG | -0.0663 |
| ATATTGGC | 0.00373 |
| AAGCACCT | -0.154 |
| GCATAAAA | 0.188 |

Reference: the supplement of paper PMC3334620
